Measured values reported in publication PMC11480334.
Results are given in words; binding and its absence hold for the method and conditions named. Binding seen in cells or lysates may run through a third protein. Some entries that bind do so weakly or less than the wild type. For some of these results: Sequences can lack the tags named with a protein.

Amino acid sequences for entries named in this document (tags omitted). A change or cut given only in a name is not applied to a line headed by its entry.
UniProt P46461: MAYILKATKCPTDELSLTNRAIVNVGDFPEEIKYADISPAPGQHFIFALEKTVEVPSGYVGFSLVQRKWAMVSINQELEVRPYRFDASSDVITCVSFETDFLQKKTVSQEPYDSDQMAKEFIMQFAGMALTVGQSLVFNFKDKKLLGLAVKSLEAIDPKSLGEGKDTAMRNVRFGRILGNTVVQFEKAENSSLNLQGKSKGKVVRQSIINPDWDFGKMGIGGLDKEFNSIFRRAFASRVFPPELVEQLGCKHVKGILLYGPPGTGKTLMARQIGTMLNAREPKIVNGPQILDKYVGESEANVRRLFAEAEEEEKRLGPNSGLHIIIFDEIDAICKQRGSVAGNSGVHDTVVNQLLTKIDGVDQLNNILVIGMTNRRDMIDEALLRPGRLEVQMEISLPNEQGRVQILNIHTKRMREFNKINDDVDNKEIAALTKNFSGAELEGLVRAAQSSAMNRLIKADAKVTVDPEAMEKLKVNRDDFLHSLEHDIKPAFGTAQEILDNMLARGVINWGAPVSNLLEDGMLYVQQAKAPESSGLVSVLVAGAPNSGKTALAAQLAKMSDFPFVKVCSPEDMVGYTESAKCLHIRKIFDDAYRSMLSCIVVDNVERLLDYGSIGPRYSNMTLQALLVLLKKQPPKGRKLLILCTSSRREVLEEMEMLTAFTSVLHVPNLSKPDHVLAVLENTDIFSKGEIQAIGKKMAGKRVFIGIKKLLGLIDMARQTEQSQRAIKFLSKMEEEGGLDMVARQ

T1: mCherry-tagged Hdc (histidine decarboxylase), expressed in S2 cells (Drosophila) (UniProt Q05733)
T1 sequence: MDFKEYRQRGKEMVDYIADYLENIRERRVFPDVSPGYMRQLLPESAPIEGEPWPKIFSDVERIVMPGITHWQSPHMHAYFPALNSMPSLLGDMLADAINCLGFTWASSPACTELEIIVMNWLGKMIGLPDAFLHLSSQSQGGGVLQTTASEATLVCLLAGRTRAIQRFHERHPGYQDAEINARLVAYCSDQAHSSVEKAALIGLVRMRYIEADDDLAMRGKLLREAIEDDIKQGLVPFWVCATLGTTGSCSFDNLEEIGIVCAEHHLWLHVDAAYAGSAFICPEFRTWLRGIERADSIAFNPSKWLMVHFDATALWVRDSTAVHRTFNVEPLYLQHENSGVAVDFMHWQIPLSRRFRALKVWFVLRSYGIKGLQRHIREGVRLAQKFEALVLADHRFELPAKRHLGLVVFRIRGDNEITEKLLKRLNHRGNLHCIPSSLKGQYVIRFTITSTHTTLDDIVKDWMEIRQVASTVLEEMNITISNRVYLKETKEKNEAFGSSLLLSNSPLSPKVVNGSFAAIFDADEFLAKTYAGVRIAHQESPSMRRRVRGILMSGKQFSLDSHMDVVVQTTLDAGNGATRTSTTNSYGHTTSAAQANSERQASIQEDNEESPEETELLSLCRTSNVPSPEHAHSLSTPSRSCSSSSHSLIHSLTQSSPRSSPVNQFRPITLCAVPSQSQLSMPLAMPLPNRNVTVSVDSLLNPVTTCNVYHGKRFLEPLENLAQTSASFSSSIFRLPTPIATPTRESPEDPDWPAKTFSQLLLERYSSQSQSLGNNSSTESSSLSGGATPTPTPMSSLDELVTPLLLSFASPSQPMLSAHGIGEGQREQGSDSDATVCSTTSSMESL

T2: mCherry-tagged Hdc (histidine decarboxylase), expressed in fly photoreceptor cells (Drosophila) (UniProt Q05733)
T2 sequence: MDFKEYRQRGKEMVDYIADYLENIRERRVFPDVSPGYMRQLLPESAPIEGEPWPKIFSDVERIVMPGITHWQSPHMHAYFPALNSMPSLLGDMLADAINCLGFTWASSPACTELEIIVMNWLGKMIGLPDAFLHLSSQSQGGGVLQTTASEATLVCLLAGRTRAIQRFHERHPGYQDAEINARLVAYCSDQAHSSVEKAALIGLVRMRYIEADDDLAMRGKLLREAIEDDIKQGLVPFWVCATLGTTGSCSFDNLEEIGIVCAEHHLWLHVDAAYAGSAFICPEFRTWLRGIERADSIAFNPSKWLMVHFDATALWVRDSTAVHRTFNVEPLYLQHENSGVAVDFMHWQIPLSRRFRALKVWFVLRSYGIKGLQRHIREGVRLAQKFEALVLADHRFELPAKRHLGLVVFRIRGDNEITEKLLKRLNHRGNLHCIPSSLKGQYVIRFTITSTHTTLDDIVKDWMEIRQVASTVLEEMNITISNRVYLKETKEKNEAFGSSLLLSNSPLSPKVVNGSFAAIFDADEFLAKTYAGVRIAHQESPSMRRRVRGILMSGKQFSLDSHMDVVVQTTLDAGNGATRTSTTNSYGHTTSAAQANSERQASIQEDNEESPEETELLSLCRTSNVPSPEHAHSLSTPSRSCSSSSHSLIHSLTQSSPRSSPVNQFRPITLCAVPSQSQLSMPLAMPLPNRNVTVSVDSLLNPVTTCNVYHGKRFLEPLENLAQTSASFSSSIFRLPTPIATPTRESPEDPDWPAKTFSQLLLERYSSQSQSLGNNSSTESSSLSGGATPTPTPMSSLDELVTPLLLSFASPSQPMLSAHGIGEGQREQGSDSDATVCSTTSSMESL


What was measured:
[1] = molecular target: T1, mCherry-tagged Hdc (histidine decarboxylase), expressed in S2 cells (Drosophila); test: co-IP; S2 cells co-expressing Hdc-mCherry and Myc-tagged NSF1; lysis in 10 mM Tris-HCl pH 7.4, 150 mM NaCl, 0.5 mM EDTA, 0.5% NP-40; precipitated with anti-mCherry (RFP agarose) beads, blotted against mCherry and Myc
[2] = molecular target: T2, mCherry-tagged Hdc (histidine decarboxylase), expressed in fly photoreceptor cells (Drosophila); test: co-IP; lysates from dissected heads of trp-Hdc-mCherry/culd-NSF1-GFP flies; precipitated with anti-mCherry beads, blotted against mCherry and GFP
[3] = molecular target: MYC-tagged NSF1, expressed in S2 cells (Drosophila) (UniProt P46461); test: co-IP; S2 cells co-expressing NSF1-Myc and truncated Hdc with mCherry tag; lysis in 10 mM Tris-HCl pH 7.4, 150 mM NaCl, 0.5 mM EDTA, 0.5% NP-40; precipitated with Myc beads, blotted against Myc and mCherry

Row | binding [3] | Molecule | also measured
1 | – | MYC-tagged NSF1, expressed in S2 cells (from UniProt P46461 1-745) | binding [1]: binds
2 | – | GFP-tagged NSF1, expressed in fly photoreceptor cells (from UniProt P46461 1-745) | binding [2]: binds
3 | – | MYC-tagged NSF1^G274E, expressed in S2 cells (from UniProt P46461 1-745) | binding [1]: binds
4 | no binding | Hdc-C-mCherry (C-terminal region of Hdc, Hdc_(413-847)) (domain or fragment, UniProt Q05733 413-847) RGDNEITEKLLKRLNHRGNLHCIPSSLKGQYVIRFTITSTHTTLDDIVKDWMEIRQVASTVLEEMNITISNRVYLKETKEKNEAFGSSLLLSNSPLSPKVVNGSFAAIFDADEFLAKTYAGVRIAHQESPSMRRRVRGILMSGKQFSLDSHMDVVVQTTLDAGNGATRTSTTNSYGHTTSAAQANSERQASIQEDNEESPEETELLSLCRTSNVPSPEHAHSLSTPSRSCSSSSHSLIHSLTQSSPRSSPVNQFRPITLCAVPSQSQLSMPLAMPLPNRNVTVSVDSLLNPVTTCNVYHGKRFLEPLENLAQTSASFSSSIFRLPTPIATPTRESPEDPDWPAKTFSQLLLERYSSQSQSLGNNSSTESSSLSGGATPTPTPMSSLDELVTPLLLSFASPSQPMLSAHGIGEGQREQGSDSDATVCSTTSSMESL | –
5 | no binding | Hdc-dN-mCherry (Hdc lacking its N-terminal 34 amino acids, Hdc_(35-847)) (domain or fragment, UniProt Q05733 35-847) PGYMRQLLPESAPIEGEPWPKIFSDVERIVMPGITHWQSPHMHAYFPALNSMPSLLGDMLADAINCLGFTWASSPACTELEIIVMNWLGKMIGLPDAFLHLSSQSQGGGVLQTTASEATLVCLLAGRTRAIQRFHERHPGYQDAEINARLVAYCSDQAHSSVEKAALIGLVRMRYIEADDDLAMRGKLLREAIEDDIKQGLVPFWVCATLGTTGSCSFDNLEEIGIVCAEHHLWLHVDAAYAGSAFICPEFRTWLRGIERADSIAFNPSKWLMVHFDATALWVRDSTAVHRTFNVEPLYLQHENSGVAVDFMHWQIPLSRRFRALKVWFVLRSYGIKGLQRHIREGVRLAQKFEALVLADHRFELPAKRHLGLVVFRIRGDNEITEKLLKRLNHRGNLHCIPSSLKGQYVIRFTITSTHTTLDDIVKDWMEIRQVASTVLEEMNITISNRVYLKETKEKNEAFGSSLLLSNSPLSPKVVNGSFAAIFDADEFLAKTYAGVRIAHQESPSMRRRVRGILMSGKQFSLDSHMDVVVQTTLDAGNGATRTSTTNSYGHTTSAAQANSERQASIQEDNEESPEETELLSLCRTSNVPSPEHAHSLSTPSRSCSSSSHSLIHSLTQSSPRSSPVNQFRPITLCAVPSQSQLSMPLAMPLPNRNVTVSVDSLLNPVTTCNVYHGKRFLEPLENLAQTSASFSSSIFRLPTPIATPTRESPEDPDWPAKTFSQLLLERYSSQSQSLGNNSSTESSSLSGGATPTPTPMSSLDELVTPLLLSFASPSQPMLSAHGIGEGQREQGSDSDATVCSTTSSMESL | –
6 | binds | MDFKEYRQRGKEMVDYIADYLENIRERRVFPDVS (domain or fragment, UniProt Q05733 1-34) [Hdc-N-mCherry (N-terminal region of Hdc, Hdc_(1-34))] | –
7 | no binding | Hdc-M-mCherry (enzymatic domain of Hdc, Hdc_(35-412)) (domain or fragment, UniProt Q05733 35-412) PGYMRQLLPESAPIEGEPWPKIFSDVERIVMPGITHWQSPHMHAYFPALNSMPSLLGDMLADAINCLGFTWASSPACTELEIIVMNWLGKMIGLPDAFLHLSSQSQGGGVLQTTASEATLVCLLAGRTRAIQRFHERHPGYQDAEINARLVAYCSDQAHSSVEKAALIGLVRMRYIEADDDLAMRGKLLREAIEDDIKQGLVPFWVCATLGTTGSCSFDNLEEIGIVCAEHHLWLHVDAAYAGSAFICPEFRTWLRGIERADSIAFNPSKWLMVHFDATALWVRDSTAVHRTFNVEPLYLQHENSGVAVDFMHWQIPLSRRFRALKVWFVLRSYGIKGLQRHIREGVRLAQKFEALVLADHRFELPAKRHLGLVVFRI | –
